# Whole data set: some 33,000 sequences, median “E-score (-0.5 to 0.5)” near -0.012, cut for the highest 2% near 0.27. The list shows a part of the results.
# Molecular target: T1, Vhr1 (UniProt P40522)
# T1 sequence: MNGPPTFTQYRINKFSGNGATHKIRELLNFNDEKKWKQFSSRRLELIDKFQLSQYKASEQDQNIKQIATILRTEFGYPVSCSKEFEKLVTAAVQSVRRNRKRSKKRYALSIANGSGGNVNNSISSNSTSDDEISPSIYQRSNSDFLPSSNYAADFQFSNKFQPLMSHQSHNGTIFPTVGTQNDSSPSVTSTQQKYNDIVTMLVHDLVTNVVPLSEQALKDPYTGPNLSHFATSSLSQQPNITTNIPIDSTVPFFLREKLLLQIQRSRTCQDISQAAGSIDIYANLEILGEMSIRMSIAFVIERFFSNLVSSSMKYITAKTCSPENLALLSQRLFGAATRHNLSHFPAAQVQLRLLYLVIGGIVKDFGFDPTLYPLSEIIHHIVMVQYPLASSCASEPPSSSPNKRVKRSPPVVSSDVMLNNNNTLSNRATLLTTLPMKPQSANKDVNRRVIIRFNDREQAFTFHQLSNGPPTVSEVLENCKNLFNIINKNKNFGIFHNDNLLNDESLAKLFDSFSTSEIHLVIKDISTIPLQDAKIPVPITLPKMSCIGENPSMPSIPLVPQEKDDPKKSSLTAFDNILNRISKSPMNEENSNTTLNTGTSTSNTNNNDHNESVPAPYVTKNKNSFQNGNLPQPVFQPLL
# Experiment: PBM E-score (8-mer binding enrichment) (E-score (-0.5 to 0.5)); higher = stronger / more preferred TF binding; most listed sequences are background and not binding sites
# Settings: protein concentration: 200 nM; construct: GST-full length
# Summary of the method: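 Yeast transcription factors, full-length or as DNA-binding domains, were expressed with a GST tag using PURExpress in vitro transcription/translation. At about 100-200 nM they were applied to universal all-10-mer Agilent arrays, double-stranded by primer extension on fresh or once-stripped slides. Fluorescent anti-GST detected bound protein, and masliner normalised the scans. E-scores for ungapped eight-base words, pooled with reverse complements, came from the Universal PBM Analysis Suite.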
row,Sequence,PBM E-score
1,ACCCACAG,0.157
2,CGCGAATA,0.0128
3,CAGAAATC,-0.121
4,CAGACGTC,-0.128
5,CCGTGAAC,-0.0787
6,CGATTTTA,-0.0769
7,CAGTGAAC,0.161
8,CAGGTGTA,0.115
9,GCGCGGAA,0.176
10,GCTGCGTA,0.128
11,GTCCAATA,-0.0854
12,GAAGGGCC,-0.184
13,GAGACGCA,0.0673
14,GCCTGCGC,-0.00523
15,ACACCGGA,0.212
16,GACGTAAA,-0.236
17,GTAACCAA,0.103
18,ACTTTCAA,-0.117
19,GATAAGAC,-0.185
20,GAGACATC,0.194
21,GACTACTA,0.328
22,CATGCGGG,0.155
23,CAAGCGTC,-0.0792
24,AGGCGGGA,0.0435
25,ATGGCTAC,0.181

row,Sequence,PBM E-score
1,AAGAAAAT,-0.157
2,CAGGTACG,0.0833
3,CGCAATCA,0.254
4,CTATAAGC,-0.104
5,AACCCCAA,-0.0945
6,ATTCCAGG,0.0397
7,ACCTGTAC,-0.0909
8,CCCGTCCA,-0.184
9,AGACCTCG,-0.0554
10,GATAAGTA,-0.123
11,CCATAGTC,0.225
12,GAATGGTC,-0.0402
13,ACAATGGT,0.0754
14,AAGCGATT,-0.0711
15,CGAACGAC,0.0833
16,CCTGACAA,0.0179
17,AGGCTGTC,-0.174
18,TACGGCAA,0.0195
19,CCAGGGTC,0.0218
20,GATCCGCA,-0.0169
21,CCCGCATC,-0.0755
22,ACTTCGTG,0.196
23,CGAAAATC,0.0303
24,TATCGTCA,0.00818
25,ACGCGGCT,-0.176

row,Sequence,PBM E-score
1,AGCTACAT,-0.0935
2,AGTACCTG,0.143
3,CCATTCTA,-0.0888
4,TCAAGCAA,-0.195
5,AGCCGACG,-0.0927
6,CTTCGGGA,-0.141
7,CCGCGTGA,0.13
8,CGAGATCA,0.108
9,CCACTCCA,0.0742
10,CATTGCCA,-0.0948
11,ACCGGATG,0.0519
12,AGGATGAT,0.309
13,CGACGCGA,0.0568
14,GGCATCCC,-0.196
15,GGCTCAGA,0.137
16,CCGGGTCG,0.127
17,CGGCAAGA,-0.0673
18,ACGGTGCT,-0.00084
19,GGCACTAA,0.0104
20,CTTGTAGC,-0.0759
21,ACGCGGAC,-0.12
22,GCTGGTAC,-0.075
23,CCACGCCA,-0.0132
24,GTCGTAGA,-0.047
25,AGCCCCCT,-0.38

row,Sequence,PBM E-score
1,CATCCAGA,0.00259
2,CCACACAA,-0.038
3,CGTGGTGA,-0.158
4,ACTAGCAA,0.0945
5,CGGCGCGA,0.258
6,AGCCCACT,0.0241
7,ACCCGATA,0.13
8,AGTAAGCA,-0.149
9,CAACCTTC,-0.171
10,GCTTTTCC,-0.198
11,TCTCGCAA,0.0933
12,GAGCATCA,-0.123
13,TCTGATCA,-0.0595
14,GAGGGCTA,-0.228
15,AGCTCCTA,-0.257
16,CTATGCGC,0.0131
17,AGCCGTCC,0.0312
18,ACATCCAC,-0.0572
19,AAAAATAG,-0.179
20,AATGGTAC,-0.0665
21,GGTGCTGA,0.042
22,GAGTGTTA,0.00822
23,ACTTTGAT,0.0736
24,AAAGTACA,0.071
25,ACTTAGTC,0.106

row,Sequence,PBM E-score
1,TCTAGCAA,-0.06
2,CGTCCTTC,-0.111
3,CGTATAGA,-0.064
4,AGAAAGGC,-0.214
5,GCATCTAA,-0.189
6,CACGGAAC,0.0514
7,ATTCCGAA,0.0744
8,CCCTATCG,-0.184
9,ATGGGAAC,0.0101
10,GGAGAGAC,0.0479
11,AGCTTGTA,-0.0135
12,GCCCTACA,-0.0859
13,ACTTAGAC,-0.127
14,ATAAAGAT,-0.0599
15,ACTTAAAT,-0.221
16,ACTGTAAG,-0.0286
17,TATAGTGA,-0.0332
18,TCGTAGCA,0.111
19,GTGTTAAC,0.0538
20,CGCCCACC,0.0735
21,CACGTTTC,-0.139
22,ATCACTGG,0.141
23,ATGCTCAA,-0.0744
24,ATCTTGCG,0.0213
25,ACGCAGTA,-0.139

row,Sequence,PBM E-score
1,GGATGTCA,0.232
2,CTCTGCTA,-0.301
3,CCGTGAGA,-0.155
4,CATCATAG,0.266
5,CCTACCAC,-0.163
6,ATAGCGGG,-0.00629
7,GGACACAA,0.221
8,CAGTCGCG,0.196
9,CGGCTTAG,-0.111
10,ACTCCCTA,0.063
11,CCTAACAC,0.164
12,AGTACGCC,-0.108
13,ACGGTCTC,-0.103
14,ATTAGTCG,0.279
15,CACATCAG,0.1
16,GGGTAGTA,-0.0945
17,CCGGCTAA,0.0635
18,CTGGGACA,-0.0675
19,AACGCACT,-0.0503
20,TAGCGCAA,-0.0984
21,GCGTATTA,-0.048
22,GTAGCGCA,-0.115
23,AAACTTCT,-0.158
24,GGCAAGCC,-0.135
25,AATTTGTG,0.0608

row,Sequence,PBM E-score
1,AAGGACAA,0.0325
2,ACGCTGTA,0.0901
3,ACGTAGGA,-0.0384
4,CTTTAGAA,-0.238
5,CTGCCGCA,0.00633
6,CTATAATC,0.0573
7,GCCCAGGA,-0.0566
8,TAACTATA,-0.0169
9,GCGGCAGC,-0.118
10,GACTAGCA,0.184
11,AATCGAAT,-0.0147
12,GCATTTAA,-0.218
13,CCATCGCG,0.134
14,GAAGTCCA,-0.213
15,AGAAGGCA,-0.173
16,CCGAGCAC,0.0108
17,AGCGCCGC,-0.191
18,CACCCGAA,0.181
19,AATGCCGA,0.0142
20,GTCGTCGA,-0.196
21,GGCGAAAA,0.0247
22,AGCAGAGA,-0.0463
